Laboratory results reported in PubChem BioAssay AID588342 (National Center for Advancing Translational Sciences (NCATS), 2011).
Screen size: about 360,000 compounds; about 25,000 (6.9%) were called active. The inconclusive results got no clear call from the source; some entries with a clear call stand among them for comparison. The call rests on the fitted dose curve; in most records, active means well fitted inhibition curve with a large enough effect; inconclusive means small, poorly fitted or top-dose-only effect; inactive means flat fitted curve, though single readings scatter. A potency beside an inconclusive call is a rough fit, not a confirmed value.
Further: nearly all actives have a fitted effect of over 55% in size.
Potency means the concentration at half of the fitted maximal effect; tags describe the fitted curve by direction and shape.
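Wherever activity change, negative = inhibition is given: plate controls were vehicle for no effect and reference inhibitor for full effect.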

These compounds were tested against Luciferin 4-monooxygenase (Photinus pyralis) (UniProt P08659) (assay: qHTS profiling assay for firefly luciferase inhibitor/activator using purifed enzyme and Km concentrations of substrates (counterscreen for miR-21 project)). Conditions: purified FLuc, luminescence inhibition; series mostly up to 57.5 µM; activity change, negative = inhibition: at the top concentration.
Chain of UniProt P08659 (P08659 whole entry, looked up): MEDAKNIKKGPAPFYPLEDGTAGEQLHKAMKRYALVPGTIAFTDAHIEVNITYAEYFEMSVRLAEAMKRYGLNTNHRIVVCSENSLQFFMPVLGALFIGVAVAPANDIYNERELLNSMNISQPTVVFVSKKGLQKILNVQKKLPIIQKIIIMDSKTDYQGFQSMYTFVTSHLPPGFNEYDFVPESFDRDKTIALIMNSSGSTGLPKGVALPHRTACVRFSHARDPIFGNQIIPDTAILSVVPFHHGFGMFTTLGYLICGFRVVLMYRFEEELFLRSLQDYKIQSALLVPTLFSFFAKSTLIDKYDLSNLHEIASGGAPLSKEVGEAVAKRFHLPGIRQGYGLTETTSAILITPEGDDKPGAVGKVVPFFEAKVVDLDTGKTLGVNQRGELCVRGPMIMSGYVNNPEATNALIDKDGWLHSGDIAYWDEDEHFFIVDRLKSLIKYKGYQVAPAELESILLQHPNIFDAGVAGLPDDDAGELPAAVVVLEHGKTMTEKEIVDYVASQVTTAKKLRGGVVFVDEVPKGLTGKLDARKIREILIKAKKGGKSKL
Outline: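 Purified P. pyralis luciferase (10nM final) with 10uM D-luciferin and 10uM ATP (Km levels) in 50mM Tris acetate pH 7.5, 10mM Mg acetate, 0.01% Tween-20, 0.05% BSA; qHTS 6-point titration, ~60 µM downward; luminescence read.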
COC(=O)c1c(N2C(=O)Nc3ccccc3N2O)sc(C)c1C was tested, and the Potency was inconclusive: 15.1 µM [inhibitor, partial curve].
In the case of O=C(NCc1ccco1)c1ccccc1-c1ccccc1, the “activity change, negative = inhibition” value is reported as inactive: -0.0083%.
For Cc1ccc(S(=O)(=O)NC(=O)c2ccc(-c3ccc(-c4ccccc4)cc3)o2)c(C)c1, the “activity change, negative = inhibition” value was inactive: 5.64%.
O=C(CCc1ccc(S(=O)(=O)N2CCOCC2)cc1)Nc1nc(COc2ccccc2)cs1 was tested, and the Potency was inconclusive: 26.9 µM [inhibitor, single point].
With CCOC(=O)c1ccc2[nH]c3c(c2c1)CCCC3NC=O (stereo unspecified) the Potency was inconclusive: 37.9 µM [inhibitor, partial curve, poor fit].
In the case of O=C(c1csc(Nc2ccccc2Cl)n1)N1CCCC1, the Potency is reported as inconclusive: 15.1 µM [inhibitor, partial curve, poor fit].
With O=C(c1cc(-c2cccs2)on1)N1CCOCC1 the Potency was active: 19 µM.
CCN(CC(=O)Nc1ccc(NC(C)=O)cc1)C(=O)/C=C/c1ccccc1 was tested, and the “activity change, negative = inhibition” value was inactive: -1.15%.
For [O-][n+]1c2c(c3c4non(O)c4ccc31)CCCC2, the Potency was inconclusive: 23.9 µM [inhibitor, partial curve, poor fit].
In the case of C=CCOc1c(Cl)cc(CNc2ccc(N(C)C)cc2)cc1OC, the Potency is reported as inconclusive: 16.9 µM [inhibitor, partial curve].
With Cc1ccc(-c2nnc(-c3cccs3)o2)cc1 the Potency was active: 6.75 µM.
For COc1cc(NC(=O)CSc2nc3ccccc3nc2Cc2ccccc2OC)cc(OC)c1, the “activity change, negative = inhibition” value was inactive: -5.35%.
With O=C1NC(=Nc2ccccc2)S/C1=C\c1cccn1-c1ccccc1 the Potency was active: 10.7 µM.
For CN1CCN(C(=O)CSc2nc(-c3cccs3)cc(-c3cccs3)c2C#N)CC1, the Potency was inconclusive: 37.9 µM [inhibitor, single point].
In the case of CCn1nnc(NC(=O)c2sc3ccccc3c2Cl)n1, the Potency is reported as active: 9.53 µM.
In the case of Cc1cc2cc(C#N)c(N3CCOCC3)nc2cc1Cl, the Potency is reported as inconclusive: 23.9 µM [inhibitor, partial curve].
For COc1ccccc1/C=C/C(=O)Nc1cccnc1, the Potency was inconclusive: 23.9 µM [inhibitor, partial curve].
In the case of O=C(OCC(=O)N1CCC(Cc2ccccc2)CC1)c1ccccc1, the Potency is reported as active: 12 µM.
For COc1ccc(C)cc1NC(=O)COCc1cc(-c2cccs2)on1, the Potency was inconclusive: 12 µM [inhibitor, partial curve, poor fit].
For CCOc1ccc(NC(=O)CSc2nc3c(c(=O)[nH]2)CCCC3)cc1, the “activity change, negative = inhibition” value was inactive: -1.99%.
For O=C(NCC(Cl)c1ccc2ccccc2c1)c1c(F)cccc1F (stereo unspecified), the Potency was inconclusive: 26.9 µM [inhibitor, partial curve, poor fit].
With Cc1ccc(OCC(=O)Sc2ccc(C)cc2)cc1 the Potency was inconclusive: 26.9 µM [inhibitor, single point].
In the case of COc1ccc(/C=N/Nc2cn[nH]c(=O)c2Cl)cc1, the Potency is reported as inconclusive: 23.9 µM [inhibitor, partial curve, poor fit].
With O=C(Nc1ccccc1)c1cnc[nH]1 the Potency was inconclusive: 21.3 µM [inhibitor, single point].
For Cc1ccc(N(C)C(=O)Cn2cnc3onc(-c4ccc(F)cc4)c3c2=O)cc1C, the “activity change, negative = inhibition” value was inactive: -9.23%.
In the case of Cc1cc(C)nc(N/N=C/c2ccccc2OCc2ccc(Br)cc2)n1, the Potency is reported as inconclusive: 10.7 µM [inhibitor, partial curve].
In the case of O=C1S/C(=C/c2ccc(N3CCOCC3)o2)C(=O)N1Cc1c(F)cccc1Cl, the Potency is reported as inconclusive: 19 µM [inhibitor, partial curve].
Cn1c(=O)n(C)c2cc([N+](=O)[O-])c(N3CCN(S(=O)(=O)c4ccccc4)CC3)cc21 was tested, and the “activity change, negative = inhibition” value was inactive: 2.46%.
With O=C(COC(=O)c1cccnc1)c1ccc(Cl)cc1 the Potency was active: 10.7 µM.
With CCCOc1ccc(-c2nc(N)n[nH]2)cc1 the Potency was active: 13.5 µM.
In the case of CCN(CC)c1ccc(CNC(=O)C/C(C)=N/NC(=O)COc2ccc(C)cc2Br)cc1, the Potency is reported as inconclusive: 37.9 µM [inhibitor, partial curve, poor fit].
O=C(NC(=S)Nc1ccc(F)cc1)C1CCCCC1 was tested, and the Potency was inconclusive: 21.3 µM [inhibitor, partial curve, poor fit].
With CC(C)(C)OC(=O)N1CCC(c2c(C(=O)NCc3ccco3)cnn2-c2ccccc2)CC1 the “activity change, negative = inhibition” value was inactive: -5.19%.
CCC(C)NC(=O)c1cn(-c2cccc(C)n2)cn1 (stereo unspecified) was tested, and the Potency was inconclusive: 37.9 µM [inhibitor, partial curve, poor fit].
In the case of O=C(N/N=C/c1ccco1)c1cc(-c2ccncc2)nc2ccccc12, the Potency is reported as inconclusive: 23.9 µM [inhibitor, single point].
In the case of COc1ccc(NC(=O)N2CCC(c3ccccc3)C2)c(OC)c1 (stereo unspecified), the Potency is reported as inconclusive: 23.9 µM [inhibitor, partial curve].
For O=CNC1CCCc2c1[nH]c1ccc(Cl)cc21 (stereo unspecified), the Potency was inconclusive: 12 µM [inhibitor, partial curve, poor fit].
With c1coc(C2=Nc3cccc4cccc(c34)N2)c1 the Potency was inconclusive: 15.1 µM [inhibitor, partial curve, poor fit].
With Cn1c(N)c(C(=O)COC(=O)c2cc(-c3ccco3)nc3ccccc23)c(=O)n(C)c1=O the Potency was inconclusive: 21.3 µM [inhibitor, single point].
For COc1ccc(/C=C/C2=NN(C)C(=O)CC2)cc1, the Potency was active: 10.7 µM.
In the case of CCC1=NN2C(=N)/C(=C/c3cc(C)n(Cc4ccccc4)c3C)C(=O)N=C2S1, the Potency is reported as inconclusive: 26.9 µM [inhibitor, single point].
For Cc1ccc(C(=O)Nc2ccc3c(c2)C(=O)N(C)C3=O)c(C)c1, the Potency was inconclusive: 3.79 µM [inhibitor, full curve].
Cc1ccc(OCC(=O)N/N=C/C=C/c2ccco2)cc1C was tested, and the Potency was inconclusive: 30.1 µM [inhibitor, single point].
With O=C(/C=C/C(=O)N1CCc2ccccc2C1)N1CCc2ccccc2C1 the “activity change, negative = inhibition” value was inactive: -2.86%.
With COc1cccc(-c2cc(C(=O)Nc3ccncc3)c3ccccc3n2)c1 the Potency was active: 16.9 µM.
In the case of O=C(Nc1cccc(Cl)c1N1CCOCC1)c1ccc2c(c1)OCCO2, the Potency is reported as inconclusive: 42.6 µM [inhibitor, partial curve, poor fit].
